At least one peptide structure holds a part that was inferred or is arguable (an end, a ring closure or a residue). Some entries repeat one wording, which the source may state once for all of them. Peptide text beside a SMILES is read from it.
Key:
PC12 cells [1] = test: Neurite sprouting assay (RSE), PC12 cells; type: cell-based, mouse; settings: for RSE (relative sprouting effect): 24 hrs in culture; for effectiveness in promoting neurite sprouting compared with fragments from the nerve growth neuroactive domain: Table III; for concentrations for inducing neurite sprouting relative to intact nerve growth factor and intact ependymin: pheochromocytoma cell cultures; for neurite sprouting, result in words: pheochromocytoma cell line (PC12)
Procedure: (§1) Two cell lines were used. The mouse neuroblastoma cell line NB2a/dl was grown to confluency in P/100 plastic plates in the presence of Delbecco's medium with 10% fetal calf serum at 36.5° C. in a 5% CO2 atmosphere. Shea, T. B. et al., Dev. Brain Res., 21:307-314 (1985). An adrenergic mouse cell line based on PC12 pheochromocytoma cells was grown on collagen-coated culture plates using 85% RPMI 1640 and 10% heat-inactivated horse serum as the growth medium. Greene, L. A. et al., Proc. Natl. Acad. Sci. USA, 73:2424-2428 (1976). Cultures were grown in P-100 plates from an initial plating of 10^5 cells/ml under sterile conditions using 10 ml of incubation medium. Experimental cultures received a given concentration of protein fragment in 1 ml of serum-free medium. Control cultures received no fragment. Equal numbers of test and control plates were incubated at 35.5° C. in a 95%/5% air/CO2 humified atmosphere, and then examined for neurite growth patterns at 18, 24 and 48 hr after the plating in a phase microscope at a magnification of 100 or 200 ×, as specified.
(§2) The test to determine the degree of sprouting was carried out blind to determine (1) the total number of cells present in a given field of observation and (2) the percent of these that have zero and one or two or more process. Twelve microscope fields, each containing 50-100 cells, were randomly selected in each plate and cells counted according to the categories described above. The data for 12 fields in each of two plates for each added protein fragment were combined to obtain an analysis of the percent sprouting (i.e. the % of cells that have one or more processes after 24 hr in culture) for each protein fragment. The ratio, % sprouting in experimental cultures/% sprouting in control cultures, is an index of the "relative sprouting effect" (RSE) of a protein fragment.

NB2a/d1 cells = test: Neurite sprouting assay (RSE), NB2a/d1 cells; type: cell-based, mouse; settings: for RSE (relative sprouting effect): 24 hrs in culture; for neurite sprouting, result in words: neuroblastoma cell line (NB2a/dl)
Procedure: as §1, §2

PC12 cells [2] = test: Neurite elongation assay (REE), PC12 cells; type: cell-based, mouse; settings: 24 hrs in culture
Procedure: as §1
(§3) In each of the twelve microscope fields, the length of nerve cell processes (minimum length: 0.5 times the cell body length) was also measured to determine the percentage of nerve elongation after 24 hr. The percentage of total cells that developed a longest process equal to its cell body length was calculated according to the formula in Table V, supra. The test protein fragments derived from gamma-ependymin and their sequences are sequence I.D. numbers 8, 15, 16, 17, and 18, supra. The following additives were also tested: pure ependymin, NGF and control protein fragment.
(§4) E = Σ x1 l1 + x2 l2 + x3 l3 . . . +

NB2a/dl cells = test: Neurite elongation assay (REE), NB2a/dl cells; type: cell-based, mouse; settings: 24 hrs in culture
Procedure: as §1, §3, §4

[3] = tested on: mouse neuroblastoma cell line NB2a/dl; test: Tissue culture bioassay of neurite growth (percent of cells with 0, 1+, 2+ processes); type: cell-based
[4] = dose 2.5 μg/ml (2.4×10^-9 M), versus untreated control

Row | SMILES | RSE (relative sprouting effect) (PC12 cells [1]; Conc. 0.9 μM) | effectiveness in promoting neurite sprouting compared with fragments from the nerve growth neuroactive domain (PC12 cells [1]) | RSE (relative sprouting effect) (NB2a/d1 cells; Conc. 1.0 (μm)) | REE (neurite elongation) (PC12 cells [2]; Conc. 0.9 μM) | RSE (relative sprouting effect) (PC12 cells [1]; Conc. 1.0 μM) | concentrations for inducing neurite sprouting relative to intact nerve growth factor and intact ependymin (PC12 cells [1]) | neurite sprouting, result in words (PC12 cells [1]) | neurite sprouting, result in words (NB2a/d1 cells) | REE (neurite elongation) (PC12 cells [2]; Conc. 0.2 μM) | other results
1 | CC(C)C[C@H](NC(=O)[C@H](CC(=O)O)NC(=O)[C@@H](N)CC(=O)O)C(=O)N[C@@H](CCC(N)=O)C(=O)N[C@H](C(=O)N[C@@H](Cc1ccccc1)C(=O)O)C(C)C [I.D. No. 8, Asp Asp Leu Gln -- Val Phe] (H-DDLQVF-OH) | 1.7 | less effective | 1.11 ± .04 | 1.72 |  |  |  |  |  | REE (neurite elongation) (NB2a/dl cells; Conc. 0.9 μM): 1.47
2 | CC(C)[C@H](NC(=O)[C@H](CO)NC(=O)[C@H](Cc1ccccc1)NC(=O)[C@H](CCC(=O)O)NC(=O)CNC(=O)[C@H](CCCCN)NC(=O)[C@@H](N)CCCCN)C(=O)N[C@@H](C)C(=O)N[C@@H](CC(=O)O)C(=O)N[C@@H](CO)C(=O)O [I.D. No. 15] (H-KKGEFSVADS-OH) |  |  | 1.1 ± .04 | 2.64 | 2.6 | 10-15 fold | could promote neurite sprouting | no significant effect |  | 
3 | N=C(N)NCCC[C@H](NC(=O)[C@H](CO)NC(=O)[C@H](CS)NC(=O)[C@H](Cc1ccc(O)cc1)NC(=O)[C@H](Cc1ccccc1)NC(=O)[C@H](CCC(=O)O)NC(=O)CNC(=O)[C@H](CCCCN)NC(=O)[C@@H](N)CCCCN)C(=O)O [I.D. No. 16] (H-KKGEFYCSR-OH) | 2.48 |  |  |  |  | 10-15 fold | could promote neurite sprouting | no significant effect | 2.18 | 
4 | CC(C)C[C@H](NC(=O)CN)C(=O)N[C@@H](CCCNC(=N)N)C(=O)N[C@H](C(=O)N[C@@H](CCCNC(=N)N)C(=O)N[C@H](C(=O)N[C@@H](Cc1c[nH]c2ccccc12)C(=O)N[C@@H](CC(N)=O)C(=O)NCC(=O)N[C@@H](CCCCN)C(=O)N[C@@H](Cc1ccccc1)C(=O)N1CCC[C@H]1C(=O)N[C@@H](CCCCN)C(=O)O)C(C)C)C(C)C [I.D. No. 17] (H-GLRVRVWNGKFPK-OH) |  | less effective | 1.39 ± .05 |  |  |  |  |  | 2.18 | REE (neurite elongation) (NB2a/dl cells; Conc. 0.7 μM): 1.48
5 | CC(C)C[C@H](NC(=O)[C@H](Cc1ccccc1)NC(=O)[C@H](Cc1ccccc1)NC(=O)[C@H](CO)NC(=O)[C@H](Cc1c[nH]cn1)NC(=O)[C@H](CC(=O)O)NC(=O)[C@H](CC(=O)O)NC(=O)[C@@H]1CCCN1C(=O)[C@H](C)NC(=O)[C@H](CCC(=O)O)NC(=O)[C@H](CCC(=O)O)NC(=O)[C@H](Cc1ccccc1)NC(=O)[C@H](C)NC(=O)[C@@H](NC(=O)CN)C(C)C)C(=O)N[C@@H](Cc1ccccc1)C(=O)O [I.D. No. 18] (H-GVAFEEAPDDHSFFLF-OH) |  | less effective |  |  |  |  |  |  |  | RSE (relative sprouting effect) (NB2a/d1 cells; Conc. 0.5 (μm)): 1.5 ± .03; REE (neurite elongation) (PC12 cells [2]; Conc. 0.5 μM): 1.55; REE (neurite elongation) (NB2a/dl cells; Conc. 0.5 μM): 1.80
6 | CC(C)C[C@H](NC(=O)[C@@H](NC(=O)[C@H](CCC(=O)O)NC(=O)[C@H](CCCCN)NC(=O)[C@@H](N)CCCCN)[C@@H](C)O)C(=O)N[C@@H](CCC(N)=O)C(=O)N[C@@H](Cc1ccccc1)C(=O)N[C@@H](CCCNC(=N)N)C(=O)O [compound 8933, Lys Lys Glu Thr Leu Gln Phe Arg] (H-KKETLQFR-OH) |  |  | 1.6 ± .04 | 1.45 | 1.58 |  |  |  |  | growth after pulse exposure and removal of polypeptide ([3]; 0.1 μg/ml, 3-hr pulse, then control medium, versus controls): enhanced growth which persists for 48 hr; (2+) type of cells versus untreated controls ([3]; 1 μg/ml, plated without trypsin treatment, 24 hr): clear increase; corresponding ependymin dose (half-maximal dose × 68,000/1034) ([3]; FIG. 2): 0.263 µg/mL; half-maximal effect (initial step function of dose-response) ([3]; FIG. 2): 0.004 µg/mL; EC50 ([3]; FIG. 2, read-out: half-maximal effect (initial step function of dose-response)): 3.8 nM; number of cells of more than two processes (2+) ([3]; FIG. 3A): increase; number of undifferentiated cells (0 processes) ([3]; FIG. 3A): marked decrease; cells plated that developed neurites ([3]; dose 1.5 μg/mg, within 24 hr, control plates 20-30%): 60-80%; number of cells with more than two processes (2+) [3, 4]: increase; number of undifferentiated cells (0 processes) [3, 4]: pronounced decrease; one-process category [3, 4]: no change; activity relative to ependymin itself ([3]; from half-maximal doses, FIG. 1 and FIG. 2): about 10 fold; RSE (relative sprouting effect) (NB2a/d1 cells; Conc. 0.1 (μm)): 1.3 ± .05; RSE (relative sprouting effect) (NB2a/d1 cells; Conc. 4.8 (μm)): 2.0 ± .04
